Like-named read-outs stand apart in the source and are kept apart here.

The subject of one series is CTLL-2 cells. As to the kind of experiment: CTLL-2 proliferation assay (MTT). The following applies: cleaved by MMP-2 for 2 hr. Format: cell-based. As to the method: (§1) Recombinant MMP9 and/or MMP2 (R&D Systems) was first activated with p-aminophenylmercuric acetate and this activated protease or equivalent amount of activating solution without the protease was used to digest or mock digest the fusion protein for 1 hr, 2 hr, 4 hr and overnight (18-22 hr) at 37 C. Cleavage assays are set up in TCNB buffer: 50 mM Tris, 10 mM CaCl2), 150 mM NaCl, 0.05% Brij-35 (w/v), pH 7.5. Digested protein was aliquoted and stored at −80° C. prior to testing. Aliquots of digests were subsequently analyzed by SDS-PAGE followed by Western blotting to evaluate the extent of cleavage. Digests were also assessed in functional assays such as CTLL-2 proliferation and HEK-Blue Interleukin reporter assays. As shown in FIGS. 2A-E, essentially complete cleavage by MMP9 protease of the fusion proteins with functional site is seen after overnight incubation. In contrast, proteins containing a scrambled MMP cleavage site are not cut (FIG. 2E).
IL-2 activity was measured using either CTLL-2 cells (ATCC) or the reporter cell line HEK Blue IL2 (Invivogen, San Diego). In brief, for the CTLL-2 assay a titration of untreated and digested samples is added to 40 000 CTLL-2 cells per well in 100 ul medium in a 96-well plate and incubated at 37C in 5% CO2 for 18-22 hr. At the end of this period, 50ug/well Thiazolyl Blue Tetrazolium Bromide (MTT) (Sigma-Aldrich) was added and the plate was incubated for 5 hr at 37C in 5% CO2. Cells were lysed with 100 µl/well 10% SDS (Sigma) acidified with HCl, incubated at 37C for 4 hr, and absorbance was read at 570 nm. Recombinant human or mouse IL-2 (Peprotech and R&D systems respectively) was used as a positive control. FIGS. 3A-B, 3K-L and 3N-P show examples of untreated and digested fusion proteins evaluated in CTLL-2 proliferation assay.

Series [1] is described as follows: Aggregation, stability and homogeneity by Coomassie-stained SDS-PAGE. The conditions noted are these: compared with Construct E. Format: physicochemical. The source says: Aggregation, stability, and homogeneity of Construct E, Construct M, and Construct N were compared using Coomassie-stained SDS-PAGE analysis (FIG. 3M).
In the next series the target is T1, MMP9 (Mus musculus, UniProt P41245).
T1 construct: purchased R&D Systems
As to the kind of experiment: Cleavage of fusion protein by MMP9 protease (SDS-PAGE / Western blot). Format: biochemical. The following applies: for extent of cleavage by MMP9: 18 hours / overnight (18-22 hr) at 37 C. The procedure: as §1
Untreated and digested fusion proteins were evaluated for cleavage products by Western blot. The following monoclonal antibodies were used: rat anti-mouse IL-2 antibody (JES6-1A12; ThermoFisher), goat anti-mouse IL-2 polyclonal antibody (AF-402-NA; R&D systems), mouse anti-6xHis monoclonal antibody (MA1-21315, ThermoFisher), Anti-mIgG Fc HRP conjugated (ThermoFisher cat #A16084), and Anti-human IL2 antibody (Invitrogen, cat #MA5-17097, mouse IgG1). Detection was performed using either a goat anti-rat HRP-conjugated antibody, Donkey Anti-goat HRP-conjugated antibody or Goat Anti-mouse HIRP conjugated (Jackson Immuno Research, West Grove, PA) and developed using the SuperSignal West Femto Maximum sensitivity detection reagent (ThermoFisher) following the manufacturer's recommendations.

In another series the test system is HEK-Blue™ IL-2 cells. As to the kind of experiment: HEK-Blue IL2 reporter assay (SEAP, OD630). The format is cell-based. The following applies: for EC50: Table 5B, HEK BLUE IL2. As to the method:
Recombinant MMP9 and/or MMP2 (R&D Systems) was first activated with p-aminophenylmercuric acetate and this activated protease or equivalent amount of activating solution without the protease was used to digest or mock digest the fusion protein for 1 hr, 2 hr, 4 hr and overnight (18-22 hr) at 37 C. Cleavage assays are set up in TCNB buffer: 50 mM Tris, 10 mM CaCl2), 150 mM NaCl, 0.05% Brij-35 (w/v), pH 7.5. Digested protein was aliquoted and stored at −80° C. prior to testing. Aliquots of digests were subsequently analyzed by SDS-PAGE followed by Western blotting to evaluate the extent of cleavage. Digests were also assessed in functional assays such as CTLL-2 proliferation and HEK-Blue Interleukin reporter assays. As shown in FIGS. 2A-E, essentially complete cleavage by MMP9 protease of the fusion proteins with functional site is seen after overnight incubation. In contrast, proteins containing a scrambled MMP cleavage site are not cut (FIG. 2E). HEK-Blue™ IL-2 cells are specifically designed to monitor the activation of the JAK-STAT pathway induced by IL-2. Indeed, stimulation with human or murine IL-2 triggers the JAK/STAT5 pathway and induces secreted embryonic alkaline phosphatase (SEAP) production. SEAP can be readily monitored when using QUANTI-Blue™, a SEAP detection medium. These cells respond to human and murine IL-2. For the HEK Blue assay, untreated and digested samples are titrated and added to 50 000 HEK Blue cells per well in 200 ul medium in a 96-well plate and incubated at 37C in 5% CO2 for 20-24 hr. The following day, levels of SEAP are measured by adding 20 uL of cell supernatant to QuantiBlue reagent, followed by 1-3 h incubation at 37C and reading absorbance at 630 nm. FIGS. 3C-J, 3Q-Y and Table 5B-5C show results obtained from IL2 fusion proteins tested in HEK Blue IL2 assay.

T1 sequence (P41245 108-730): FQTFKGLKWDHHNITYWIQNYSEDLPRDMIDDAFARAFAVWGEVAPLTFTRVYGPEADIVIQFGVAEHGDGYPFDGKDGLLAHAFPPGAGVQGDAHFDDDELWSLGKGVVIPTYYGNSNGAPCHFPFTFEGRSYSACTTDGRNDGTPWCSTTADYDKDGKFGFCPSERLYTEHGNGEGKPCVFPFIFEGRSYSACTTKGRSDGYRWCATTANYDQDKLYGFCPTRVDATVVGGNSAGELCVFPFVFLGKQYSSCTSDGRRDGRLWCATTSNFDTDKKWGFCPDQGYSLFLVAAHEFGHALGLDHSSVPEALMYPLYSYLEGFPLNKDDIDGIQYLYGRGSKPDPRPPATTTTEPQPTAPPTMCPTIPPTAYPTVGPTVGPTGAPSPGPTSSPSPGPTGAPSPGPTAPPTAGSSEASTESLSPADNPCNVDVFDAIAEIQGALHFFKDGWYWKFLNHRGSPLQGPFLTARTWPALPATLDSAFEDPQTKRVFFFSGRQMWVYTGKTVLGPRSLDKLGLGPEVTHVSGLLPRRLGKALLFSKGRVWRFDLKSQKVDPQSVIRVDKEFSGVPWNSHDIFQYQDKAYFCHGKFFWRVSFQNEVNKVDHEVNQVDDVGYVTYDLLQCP

B1: Construct N: SEQ ID NO 842: hIL2(C125S)-2x(SG4)-MMPcs1-2x(G4S)-hIL2Ra([…])-GSGGGG-hu IgG1 Fc-6xHis (protein)
chain: [no letters for about 150 residues]SGGGGSGGGGGPLGVRGGGGGSGGGGSELCDDDPPEIPHATFKAMAYKEGTMLNCECKRGFRRIKSGSLYMLCTGNSSHSSWDNQCQCTSSATRNTTKQVTPQPEEQKERKTTEMQSPMQPVDQASLPGHCREPPPWENEATERIYHFVVGQMVYYQCVQGYRALHRGPAESVCKMTHGKTRWTQPQLICTGEMETSQFPGEEKPQASPEGRPESETSCGSGGGG[no letters for human IgG1 Fc]
modifications: 6xHis tag
With B1, the “CTLL-2 cell proliferation, MMP-2 treated construct” value (“CTLL-2 cell proliferation” below) in the series on CTLL-2 cells is reported as “stimulate CTLL-2 cell proliferation in a dose dependent manner”. Moreover, the “aggregation, stability and homogeneity” value in series [1] is “decreased aggregation and greater stability and homogeneity”.

B2: Construct Q: SEQ ID NO 845: hIL2(C125S)-2x(SG4)-MMPcs1-2x(G4S)-hIL2Ra([…]/D4L, D5Y)-GSGGGG-hu IgG1 Fc-6xHis (protein)
chain: [no letters for about 150 residues]SGGGGSGGGGGPLGVRGGGGGSGGGGSELCLYDPPEIPHATFKAMAYKEGTMLNCECKRGFRRIKSGSLYMLCTGNSSHSSWDNQCQCTSSATRNTTKQVTPQPEEQKERKTTEMQSPMQPVDQASLPGHCREPPPWENEATERIYHFVVGQMVYYQCVQGYRALHRGPAESVCKMTHGKTRWTQPQLICTGEMETSQFPGEEKPQASPEGRPESETSCGSGGGG[no letters for human IgG1 Fc]
modifications: 6xHis tag
Consider B2, for which the “CTLL-2 cell proliferation” value with CTLL-2 cells is reported as “stimulate CTLL-2 cell proliferation in a dose dependent manner”.

B3: Construct P: SEQ ID NO 844: hIL2(C125S)-2x(SG4)-MMPcs1-2x(G4S)-hIL2Ra([…]/L42V)-GSGGGG-hu IgG1 Fc-6xHis (protein)
chain: [no letters for about 150 residues]SGGGGSGGGGGPLGVRGGGGGSGGGGSELCDDDPPEIPHATFKAMAYKEGTMLNCECKRGFRRIKSGSVYMLCTGNSSHSSWDNQCQCTSSATRNTTKQVTPQPEEQKERKTTEMQSPMQPVDQASLPGHCREPPPWENEATERIYHFVVGQMVYYQCVQGYRALHRGPAESVCKMTHGKTRWTQPQLICTGEMETSQFPGEEKPQASPEGRPESETSCGSGGGG[no letters for human IgG1 Fc]
modifications: 6xHis tag
Regarding B3, the “CTLL-2 cell proliferation” value with CTLL-2 cells is “stimulate CTLL-2 cell proliferation in a dose dependent manner”.

B4: Construct O: SEQ ID NO 843: hIL2(C125S)-2x(SG4)-MMPcs1-2x(G4S)-hIL2Ra([…]/M25I)-GSGGGG-hu IgG1 Fc-6xHis (protein)
chain: [no letters for about 150 residues]SGGGGSGGGGGPLGVRGGGGGSGGGGSELCDDDPPEIPHATFKAMAYKEGTILNCECKRGFRRIKSGSLYMLCTGNSSHSSWDNQCQCTSSATRNTTKQVTPQPEEQKERKTTEMQSPMQPVDQASLPGHCREPPPWENEATERIYHFVVGQMVYYQCVQGYRALHRGPAESVCKMTHGKTRWTQPQLICTGEMETSQFPGEEKPQASPEGRPESETSCGSGGGG[no letters for human IgG1 Fc]
modifications: 6xHis tag
For B4, in the series with CTLL-2 cells, the “CTLL-2 cell proliferation” value is “stimulate CTLL-2 cell proliferation in a dose dependent manner”.

B5: Construct FFF: SEQ ID NO 851: h IL2(C125S)-VRIQRKKEKMKET-MMPscr-2x(G4S)-hIL2Ra(M25I)-GSGGGG-hu IgG1 Fc(LALA) (protein)
chain: [no letters for about 150 residues]VRIQRKKEKMKETGPLGVRGGGGGSGGGGSELCDDDPPEIPHATFKAMAYKEGTILNCECKRGFRRIKSGSLYMLCTGNSSHSSWDNQCQCTSSATRNTTKQVTPQPEEQKERKTTEMQSPMQPVDQASLPGHCREPPPWENEATERIYHFVVGQMVYYQCVQGYRALHRGPAESVCKMTHGKTRWTQPQLICTGEMETSQFPGEEKPQASPEGRPESETSCLVTTTDFQIQTEMAATMETSIFTTEYQGSGGGG[no letters for human IgG1 Fc with changes]
Consider B5, for which the “extent of cleavage by MMP9” value in the series with MMP9 was “did not show substantial cleavage”.

B6: Construct M: SEQ ID NO 841: hIL2(C125S)-2x(SG4)-MMPcs1-2x(G4S)-hIL2Ra([…])-hu IgG1 Fc-6xHis (protein)
chain: [no letters for about 150 residues]SGGGGSGGGGGPLGVRGGGGGSGGGGSELCDDDPPEIPHATFKAMAYKEGTMLNCECKRGFRRIKSGSLYMLCTGNSSHSSWDNQCQCTSSATRNTTKQVTPQPEEQKERKTTEMQSPMQPVDQASLPGHCREPPPWENEATERIYHFVVGQMVYYQCVQGYRALHRGPAESVCKMTHGKTRWTQPQLICTGEMETSQFPGEEKPQASPEGRPESET[no letters for human IgG1 Fc]
modifications: 6xHis tag
B6: the “CTLL-2 cell proliferation” value in the series with CTLL-2 cells is listed as “stimulate CTLL-2 cell proliferation in a dose dependent manner”. For the same molecule, the “aggregation, stability and homogeneity” value in series [1] was “decreased aggregation and greater stability and homogeneity”.

B7: Construct BBB: SEQ ID NO 847: h IL2(C125S)-2x(SG4)-MMPscr-2x(G4S)-hIL2Ra(M25I)-GSGGGG-hu IgG1 Fc (LALA) (protein)
chain: [no letters for about 150 residues]SGGGGSGGGGGVRLGPGGGGGSGGGGSELCDDDPPEIPHATFKAMAYKEGTILNCECKRGFRRIKSGSLYMLCTGNSSHSSWDNQCQCTSSATRNTTKQVTPQPEEQKERKTTEMQSPMQPVDQASLPGHCREPPPWENEATERIYHFVVGQMVYYQCVQGYRALHRGPAESVCKMTHGKTRWTQPQLICTGEMETSQFPGEEKPQASPEGRPESETSCLVTTTDFQIQTEMAATMETSIFTTEYQGSGGGG[no letters for human IgG1 Fc with changes]
Take B7: the “extent of cleavage by MMP9” value with MMP9 is recorded as “did not show substantial cleavage”.

B8: Construct CCC: SEQ ID NO 848: h IL2(C125S)-2x(GHHPH)-MMPscr-2x(G4S)-hIL2Ra(M25I)-GSGGGG-hu IgG1 Fc (LALA) (protein)
chain: [no letters for about 150 residues]GHHPHGHHPHGVRLGPGGGGGSGGGGSELCDDDPPEIPHATFKAMAYKEGTILNCECKRGFRRIKSGSLYMLCTGNSSHSSWDNQCQCTSSATRNTTKQVTPQPEEQKERKTTEMQSPMQPVDQASLPGHCREPPPWENEATERIYHFVVGQMVYYQCVQGYRALHRGPAESVCKMTHGKTRWTQPQLICTGEMETSQFPGEEKPQASPEGRPESETSCLVTTTDFQIQTEMAATMETSIFTTEYQGSGGGG[no letters for human IgG1 Fc with changes]
Take B8: the “extent of cleavage by MMP9” value with MMP9 is recorded as “did not show substantial cleavage”.

B9: Construct E: SEQ ID NO 106: Hu IL2(C125S)-2x(SG4)-MMPcs1-2x(G4S)-IL2Ralpha-hu IgG1 Fc-6xHIS (protein)
chain: [no letters for about 150 residues]SGGGGSGGGGGPLGVRGGGGGSGGGGSELCDDDPPEIPHATFKAMAYKEGTMLNCECKRGFRRIKSGSLYMLCTGNSSHSSWDNQCQCTSSATRNTTKQVTPQPEEQKERKTTEMQSPMQPVDQASLPGHCREPPPWENEATERIYHFVVGQMVYYQCVQGYRALHRGPAESVCKMTHGKTRWTQPQLICTGEMETSQFPGEEKPQASPEGRPESETSCLVTTTDFQIQTEMAATMETSIFTTEYQ[no letters for human IgG1 Fc and a few adjoining residues]
As for B9, the EC50 with HEK-Blue™ IL-2 cells (cleaved with MMP9, read-out: +MMP EC50) is 0.0073 nM; with HEK-Blue™ IL-2 cells (uncleaved, read-out: −MMP EC50), 0.103 nM. The “FOLD DIFFERENCE EC50 (HEK BLUE IL2)” value with HEK-Blue™ IL-2 cells (−MMP vs +MMP) came out at 14. The “full-length cytokine prodrug remaining” value with MMP9 (22 hour +MMP time point) is “essentially no band”. In the series with MMP9 (+MMP-9 digestion, Western blot), the “time at which cleavage product was detectable” value is 1 h.

For the origin of these results see patent US20240043489A1, “Cytokine Prodrugs Comprising a Cleavable Linker” (Trutino Biosciences Inc., priority 2020, published 2024).
